# In publication PMC12820563, “FoxP3 forms a head-to-head dimer in vivo and stabilizes its multimerization on adjacent microsatellites”:
# Some of the results follow.
# Biological target: T1, MBP-FoxP1dN (Mus musculus, UniProt P58462 326-579)
# T1 sequence: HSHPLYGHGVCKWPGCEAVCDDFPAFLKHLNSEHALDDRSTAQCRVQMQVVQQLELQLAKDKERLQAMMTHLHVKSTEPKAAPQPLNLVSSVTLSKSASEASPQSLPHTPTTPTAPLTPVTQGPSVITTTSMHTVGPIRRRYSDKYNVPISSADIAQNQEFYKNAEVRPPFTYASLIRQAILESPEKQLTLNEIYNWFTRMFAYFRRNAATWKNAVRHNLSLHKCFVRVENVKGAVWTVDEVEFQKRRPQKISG
# Test: PD-seq (MBP pull-down with sequencing); 20 mM Tris-HCl pH 7.5, 100 mM NaCl, 1.5 mM MgCl2, 0.4 uM protein, 0.1 uM dsDNA library, 30 min, room temperature, amylose pull-down; high values mean tight binding
# Conditions: protein: recombinant; tags: His6-MBP; chain copies: 2; dsDNA, one strand shown
# Procedure, shortened: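 Protein and DNA were mixed at 0.4 µM and 0.1 µM and held for 30 min at room temperature in Tris pH 7.5 buffer with NaCl and MgCl2; the protein was a His6-MBP-tagged, N-terminally truncated mouse FoxP3 or FoxP1 fragment from E. coli, and the DNA a Klenow-filled double-stranded degenerate library. Amylose resin captured the complexes, which were washed three times. Binding is read as reads-per-million enrichment of pull-down versus input after Illumina sequencing, with replicates pooled.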
row,Sequence,binding signal
1,GATGATTGTTCTCCCAGCTGATGAATTAAGGGGGTCGAGTAAACAAATTTTCCTAATCTTTCTGTTCAAGCGCCATCTAC,0.848 RPM ratio (pull-down/input)
2,GATGATTGTTCTCCCAGCTGATGAATTCTCTACCTCGAGTAAACAAATTTTCCTAATCTTTCTGTTCAAGCGCCATCTAC,0.739 RPM ratio (pull-down/input)
3,GATGATTGTTCTCCCAGCTGATGAATTTGGACTCTCGAGTAAACAAATTTTCCTAATCTTTCTGTTCAAGCGCCATCTAC,0.875 RPM ratio (pull-down/input)
4,GATGATTGTTCTCCCAGCTGATGAATTTCTCCCCTCGAGTAAACAAATTTTCCTAATCTTTCTGTTCAAGCGCCATCTAC,0.818 RPM ratio (pull-down/input)
5,GATGATTGTTCTCCCAGCTGATGAATTTGAGAAATCGAGTAAACAAATTTTCCTAATCTTTCTGTTCAAGCGCCATCTAC,1.03 RPM ratio (pull-down/input)
6,GATGATTGTTCTCCCAGCTGATGAATTGTGAGTATCGAGTAAACAAATTTTCCTAATCTTTCTGTTCAAGCGCCATCTAC,1.27 RPM ratio (pull-down/input)
7,GATGATTGTTCTCCCAGCTGATGAATTTGATTAATCGAGTAAACAAATTTTCCTAATCTTTCTGTTCAAGCGCCATCTAC,0.986 RPM ratio (pull-down/input)
8,GATGATTGTTCTCCCAGCTGATGAATTCTATCGTTCGAGTAAACAAATTTTCCTAATCTTTCTGTTCAAGCGCCATCTAC,0.89 RPM ratio (pull-down/input)
9,GATGATTGTTCTCCCAGCTGATGAATTAACAGGCTCGAGTAAACAAATTTTCCTAATCTTTCTGTTCAAGCGCCATCTAC,0.904 RPM ratio (pull-down/input)
10,GATGATTGTTCTCCCAGCTGATGAATTGTTCGTATCGAGTAAACAAATTTTCCTAATCTTTCTGTTCAAGCGCCATCTAC,1.24 RPM ratio (pull-down/input)
11,GATGATTGTTCTCCCAGCTGATGAATTTACGTAGTCGAGTAAACAAATTTTCCTAATCTTTCTGTTCAAGCGCCATCTAC,1.19 RPM ratio (pull-down/input)
12,GATGATTGTTCTCCCAGCTGATGAATTTGAAAAATCGAGTAAACAAATTTTCCTAATCTTTCTGTTCAAGCGCCATCTAC,1.02 RPM ratio (pull-down/input)
13,GATGATTGTTCTCCCAGCTGATGAATTTATGTCTTCGAGTAAACAAATTTTCCTAATCTTTCTGTTCAAGCGCCATCTAC,1.31 RPM ratio (pull-down/input)
14,GATGATTGTTCTCCCAGCTGATGAATTTATAGGGTCGAGTAAACAAATTTTCCTAATCTTTCTGTTCAAGCGCCATCTAC,0.95 RPM ratio (pull-down/input)
15,GATGATTGTTCTCCCAGCTGATGAATTCAGACTGTCGAGTAAACAAATTTTCCTAATCTTTCTGTTCAAGCGCCATCTAC,0.769 RPM ratio (pull-down/input)
16,GATGATTGTTCTCCCAGCTGATGAATTGCATAGGTCGAGTAAACAAATTTTCCTAATCTTTCTGTTCAAGCGCCATCTAC,1.02 RPM ratio (pull-down/input)

row,Sequence,binding signal
1,GATGATTGTTCTCCCAGCTGATGAATTTGTCCTTTCGAGTAAACAAATTTTCCTAATCTTTCTGTTCAAGCGCCATCTAC,1.08 RPM ratio (pull-down/input)
2,GATGATTGTTCTCCCAGCTGATGAATTATTATTCTCGAGTAAACAAATTTTCCTAATCTTTCTGTTCAAGCGCCATCTAC,1.45 RPM ratio (pull-down/input)
3,GATGATTGTTCTCCCAGCTGATGAATTAGCCCCGTCGAGTAAACAAATTTTCCTAATCTTTCTGTTCAAGCGCCATCTAC,0.812 RPM ratio (pull-down/input)
4,GATGATTGTTCTCCCAGCTGATGAATTTTACCCATCGAGTAAACAAATTTTCCTAATCTTTCTGTTCAAGCGCCATCTAC,0.932 RPM ratio (pull-down/input)
5,GATGATTGTTCTCCCAGCTGATGAATTCCGGGATTCGAGTAAACAAATTTTCCTAATCTTTCTGTTCAAGCGCCATCTAC,0.754 RPM ratio (pull-down/input)
6,GATGATTGTTCTCCCAGCTGATGAATTCACTACTTCGAGTAAACAAATTTTCCTAATCTTTCTGTTCAAGCGCCATCTAC,0.901 RPM ratio (pull-down/input)
7,GATGATTGTTCTCCCAGCTGATGAATTTAATGAGTCGAGTAAACAAATTTTCCTAATCTTTCTGTTCAAGCGCCATCTAC,0.912 RPM ratio (pull-down/input)
8,GATGATTGTTCTCCCAGCTGATGAATTACTGTGCTCGAGTAAACAAATTTTCCTAATCTTTCTGTTCAAGCGCCATCTAC,0.973 RPM ratio (pull-down/input)
9,GATGATTGTTCTCCCAGCTGATGAATTAATTATTTCGAGTAAACAAATTTTCCTAATCTTTCTGTTCAAGCGCCATCTAC,1.12 RPM ratio (pull-down/input)
10,GATGATTGTTCTCCCAGCTGATGAATTGCGTAAATCGAGTAAACAAATTTTCCTAATCTTTCTGTTCAAGCGCCATCTAC,1.48 RPM ratio (pull-down/input)
11,GATGATTGTTCTCCCAGCTGATGAATTCTGTTAGTCGAGTAAACAAATTTTCCTAATCTTTCTGTTCAAGCGCCATCTAC,1.29 RPM ratio (pull-down/input)
12,GATGATTGTTCTCCCAGCTGATGAATTACATGCGTCGAGTAAACAAATTTTCCTAATCTTTCTGTTCAAGCGCCATCTAC,1.3 RPM ratio (pull-down/input)
13,GATGATTGTTCTCCCAGCTGATGAATTAAAGACTTCGAGTAAACAAATTTTCCTAATCTTTCTGTTCAAGCGCCATCTAC,0.85 RPM ratio (pull-down/input)
14,GATGATTGTTCTCCCAGCTGATGAATTATCGCGGTCGAGTAAACAAATTTTCCTAATCTTTCTGTTCAAGCGCCATCTAC,0.917 RPM ratio (pull-down/input)
15,GATGATTGTTCTCCCAGCTGATGAATTAACTCGCTCGAGTAAACAAATTTTCCTAATCTTTCTGTTCAAGCGCCATCTAC,0.834 RPM ratio (pull-down/input)
16,GATGATTGTTCTCCCAGCTGATGAATTAACTGGGTCGAGTAAACAAATTTTCCTAATCTTTCTGTTCAAGCGCCATCTAC,0.811 RPM ratio (pull-down/input)
